Assay results as given in PubChem BioAssay AID1508624 (National Center for Advancing Translational Sciences (NCATS), 2021).
In all, about 48,000 compounds went through this assay and about 120 (0.25%) were called active. Roughly 4% stayed inconclusive and do not appear here. Calls follow the shape of the dose curve; as a rule, active = well fitted activation curve with a large enough effect; inconclusive = small, poorly fitted or top-dose-only effect, or another doubt; inactive = no such curve, though single readings can be large or run the other way. The list shows a part of the results.

Assay: Primary qHTS for Identification of Small Molecule Activators of Huntingtin-Antisense Promoter Activity; also: nearly all actives have a fitted effect of over 55% in size
Settings: HEK293 HTT-AS promoter firefly luciferase reporter, 24 h; series mostly up to 57.5 µM; activity change, positive = activation: at the top concentration
Summary of the method: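 HEK293 cells carrying firefly luciferase reporters were seeded at 2,500 per well in Opti-MEM and cultured for 24 h. They were then treated with compounds at up to 57.5 uM final for 24 h at 37 degrees C before Dual-Glo luminescence readout.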

Activity change, positive = activation, inactive:
CC1CCCCN1c1cc2c(cc1F)c(=O)c(S(=O)(=O)c1ccccc1)cn2Cc1ccccc1 (configuration not stated) -14%
O=S(=O)(Nc1ccc(O)c(Sc2nc3ccccc3s2)c1)c1cc(Cl)ccc1Cl -20%
O=C(Cn1c(-c2cccs2)cc2cc(F)ccc21)NCCc1ccc(Cl)cc1 -22.5%
Cc1c(Cl)cccc1NC(=O)C(=O)NCCc1csc2nc(-c3ccccc3F)nn12 -27.4%
CCCCOc1ccc(CNC(=O)c2cnc3sc(N4CCCC4)nn3c2=O)cc1 -17.9%
O=C(NCCCN1CCN(c2ccccc2)CC1)c1sc2ncccc2c1-n1cccc1 -18.2%
CCOc1ccc(CCNC(=O)c2cnc3c(-c4ccc(F)cc4)c(C)nn3c2C)cc1 -8.53%
COc1ccc(N(C(=O)c2ccccc2C)S(=O)(=O)c2ccc(Cl)cc2)cc1 -29.5%
Nc1ncc(S(=O)(=O)NCc2ccccc2)cn1 -1.62%
COc1cc(S(=O)(=O)NCCc2c(C)[nH]c3ccc(C)cc23)ccc1Br -30.9%
COc1ccc(C(=O)c2cn(Cc3ccccc3)c3ccccc3c2=O)cc1OC -19.7%
CN1C(C(=O)Nc2cccc(O)c2)=CC(c2cccs2)=NS1(=O)=O -27.9%
O=C(NCCc1nc2ccccc2n1Cc1ccccc1F)c1ccc(F)cc1 -29.5%
CCOc1ccc(-n2ccnc2SCC(=O)Nc2cc(C)ccc2C)cc1 -23.7%
O=C(C1CCC1)N1CCCc2cc(S(=O)(=O)N3CCN(c4cccc(Cl)c4)CC3)ccc21 -16.3%
CCOCc1cc(CN2CCN(c3cccc(C(F)(F)F)c3)CC2)c(O)c2ncccc12 -35.6%
COc1c(OCCCN2CCOCC2)ccc2c3n(c(=NC(=O)c4cnc(N)nc4)nc12)CCN3 -40.7% [at 25.1 µM, percent change from vehicle, -100% = no light]
COc1cccc(-n2c(SCc3cccc(C)c3)nc3c([nH]c4ccccc43)c2=O)c1 -24.5%
Cc1ccc(C)c(NC(=O)C(=O)NCCCN2CCOCC2)c1 -4.42%
CCOc1ccccc1NC(=O)COC(=O)CC(C)(C)CC1=NS(=O)(=O)c2ccccc2N1 -42.5%
Cc1onc(-c2ccccc2Cl)c1C(=O)Oc1ccc(Cl)cc1Cl -11.2%
CN(c1ccc(F)cc1)S(=O)(=O)N1CCCC(C(=O)NCc2ccccc2Cl)C1 (configuration not stated) -27.1%
CCN(CC)S(=O)(=O)c1ccc(OC)c(NC(=O)c2sc3ccccc3c2Cl)c1 -12.1%
Cc1ccc2c(c1)c1c(c(=O)n(Cc3ccccc3)c(=O)n1Cc1ccccc1F)n2C -15.4%
Cc1cccc(NC(=O)c2oc3ccccc3c2NC(=O)c2cc(=O)c3ccccc3o2)c1 0%
CCOc1ccc(N2CC(NC(=O)c3ccc(Cl)cc3)CC2=O)cc1 (configuration not stated) -11.6%
CCOC(=O)N1CCc2c(sc3c2c(=O)n(Cc2ccccc2)c(=O)n3CC(=O)Nc2ccc(F)cc2)C1 -22.8%
